Results reported in PubChem BioAssay AID1794842 (National Center for Advancing Translational Sciences (NCATS), 2023).
The whole screen tested about 2,800 compounds, of which fewer than 10 were called active. The call rests on the fitted dose curve; in most records, active means well fitted curve in the direction sought with a large enough effect; inconclusive means small, poorly fitted or top-dose-only effect, or another doubt; inactive means no such curve, though single readings can be large or run the other way. The list shows a part of the results.

Molecular target: Metallo-beta-lactamase type 2 (Klebsiella pneumoniae) (UniProt C7C422)
Sequence of UniProt C7C422 (C7C422 whole entry, looked up): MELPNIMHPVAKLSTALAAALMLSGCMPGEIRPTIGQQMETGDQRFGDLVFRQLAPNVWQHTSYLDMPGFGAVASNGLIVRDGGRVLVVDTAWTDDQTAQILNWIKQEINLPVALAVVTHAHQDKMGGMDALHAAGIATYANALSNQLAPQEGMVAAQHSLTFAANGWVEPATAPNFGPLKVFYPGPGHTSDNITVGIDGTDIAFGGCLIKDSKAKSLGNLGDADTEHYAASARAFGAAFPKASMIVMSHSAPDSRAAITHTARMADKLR
Test: qHTS to identify inhibitors of the New Delhi Metallo-beta-lactamase (NDM): Meropenem screen against the machine-based learning selections. Further: % of control where 0% means no effect.
Conditions: Purified NDM-1, meropenem hydrolysis, absorbance 300 nm; at 38.4 µM (top of the series) unless noted
In short: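 NDM-1 (2 nM final) in 50 mM HEPES pH 7.0, 1 uM Zn2SO4, 0.01% Tween20 was preincubated with compounds for >30 min. Nitrocefin (16.7 uM final) was read at 485 nm after 15 min, and meropenem (50 uM final) at 300 nm after 30 min.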

| Structure (SMILES) | activity change, negative = inhibition |
| --- | --- |
| CC(=O)N1CCc2nc(-c3ccc(Cl)cc3)nc(-c3ccccc3)c2C1 | inactive: 0.131% |
| COCCN1C(=O)[C@H]2CN(Cc3cccc(OC)c3)C[C@H]2C1=O | inactive: -1.3% |
| CCC[C@@H]1CN(Cc2[nH]cc(C)c(=O)c2C)C[C@H]1C(=O)O | inactive: 7.36% |
| Cc1ccc(S(=O)(=O)N2CCn3c(n[nH]c3=O)C2)c(C)c1 | inactive: 0.919% |
| Cn1nc(C(=O)NCc2nnc3ccc(-c4ccccc4)nn23)c2ccccc21 | inactive: -0.309% |
| Cc1cc(OC(C)C(=O)N2CCc3c(nc[nH]c3=O)C2)cc(C)c1Cl (configuration not stated) | inactive: -0.336% |
| O=C(O)[C@]12CCCN[C@@H]1CCN(Cc1ccc(-c3ccccn3)cc1)C2 | inactive: 10.1% |
| CCN(CC)Cc1cnc2c(C(=O)N3CCC(N4CCCC4)CC3)cnn2c1 | inactive: 2% |
| CCCC1C=CCN1C(=O)c1coc(CN2CCN(c3ccccc3F)CC2)n1 (configuration not stated) | inactive: 0.646% |
| Cc1c(C(C)NC(=O)c2ccc(C#N)nc2)cnn1-c1ccc(F)cc1F (configuration not stated) | inactive: -0.922% |
| C[C@@H](NC(=O)[C@@H]1C[C@@H](NS(=O)(=O)c2cn(C)cn2)CCN1C(=O)c1ccco1)C(N)=O | inactive: -0.135% |
| O=C1Nc2ccc(-c3ccc4c(c3)OCO4)cc2C(=O)N2CCN(C(=O)c3cccs3)C[C@H]12 | inactive: 6.52% |
| CC1=NOC2(CCN(C(=O)c3ccc(C)cc3)CC2)C1 | inactive: -1.59% [at 57.5 µM] |
| CC(C)c1ccc(Nc2n[nH]c(C(O)c3ccccc3)n2)cc1 (configuration not stated) | inactive: 0.347% [at 57.5 µM] |
| CN(C)C(=O)NC1CCN(c2nc3ncccc3o2)CC1 | inactive: 18.2% [at 57.5 µM] |
| Cn1nc(C2CCN(C(=O)c3cccc(Cl)c3)CC2)[nH]c1=O | inactive: -1.52% [at 57.5 µM] |
| CCNC(=O)[C@@H]1C[C@@H](NC(=O)c2csc(C)c2CC)CN1C1CCCC1 | inactive: 2.31% |
| Cc1ccc(CN2C(=O)[C@@H]3C[C@@H](O)CN3C3(CN(Cc4ccncc4)C3)C2=O)o1 | inactive: 17% [at 57.5 µM] |
| CN(C)c1cccc(NC(=O)Cc2c[nH]c3ncc(-c4ccccc4)cc23)c1 | inactive: 2.03% [at 57.5 µM] |
| Oc1ccccc1CN1CCOC[C@H]1c1ncc(-c2cccc(Cl)c2)[nH]1 | inactive: 9.9% [at 57.5 µM] |
| CN(C)c1ccc(CN2Cc3[nH]cnc3C[C@H]2c2nc(-c3ccccc3)no2)cc1 | inactive: 25.6% [at 57.5 µM] |
| COc1ccc(-c2nc3c(c(-c4ccccc4)n2)CN(C(=O)c2cccc(Cl)c2)CC3)cc1 | inactive: 7.95% |
| CN(C)c1cccc(-c2cnc(Nc3cccc(N[S+](C)(=O)[O-])c3)c3c2CCO3)c1 | inactive: 15.1% [at 57.5 µM] |
| COc1ccc(CNC(=O)CC[C@H]2CNC(=O)[C@@H]3[C@@H](CCN3C(C)C)N2C)cc1 | inactive: 0.689% [at 57.5 µM] |
| CC(C)(O)C#Cc1ccc(CN2CCC(CO)(CCCc3ccccc3)CC2)s1 | inactive: 0.33% |
| Cn1c(CN2CCOCC2)nnc1C1CCCN(C(=O)CNC(N)=O)C1 (configuration not stated) | inactive: -2.53% |

| Structure (SMILES) | activity change, negative = inhibition |
| --- | --- |
| CN1C[C@H](NCc2nccn2C)CCC[C@@H](C(=O)NCc2cc(F)cc(F)c2)CC1=O | inactive: 2.74% [at 57.5 µM] |
| Cc1ccc2nc(C3CCCN(Cc4ccc(-c5cncnc5)cc4)C3)[nH]c(=O)c2c1 (configuration not stated) | inactive: 2.52% |
| O=C(Cc1c[nH]c2ncc(-c3ccccc3C(F)(F)F)cc12)NCc1cccnc1 | inactive: 7.58% [at 57.5 µM] |
| CC[C@@]1(O)CCN(C(=O)c2cccc(CCC(C)(C)O)c2)C[C@H]1O | inactive: 1.82% |
| CC1=C[C@@H](CN2CCN(c3ccccn3)CC2)[C@H](C(C)C)C[C@H]1Cc1nnc(-c2ccccc2)o1 | inactive: 0.468% |
| COc1ccc(C2Cn3cnc(C(=O)N4CCC(C(=O)Nc5ccc(C)cc5C)CC4)c3CO2)cc1 (configuration not stated) | inactive: 0.873% |
| O[C@@H]1CC(CNCc2cccc(Cl)c2)(COc2ccccc2)C[C@@H]1O (some centres not stated) | inactive: 5.41% [at 57.5 µM] |
| COc1ccc(Nc2cnc3ccc(-c4cccc(CO)c4)nn23)cn1 | inactive: 59.5% [at 57.5 µM] |
| Cn1c([C@H]2CCN(C(=O)COc3ccccc3)C2)nc2ccccc21 | inactive: 3.96% [at 57.5 µM] |
| Cc1nccnc1CN1CCC2(CC1)CCN(Cc1ncc[nH]1)CC2CO (configuration not stated) | inactive: 3.76% |
| O=C1Nc2ccc(-c3ccc4c(c3)OCO4)cc2C(=O)N2CCN(C(=O)C3CCCC3)C[C@@H]12 | inactive: 0.744% |
| COc1ccc2[nH]c3c(c2c1)CCN(C)C31CCN(C(=O)c2ccc3ncccc3c2)CC1 | inactive: 0.291% |
| O=C(NC[C@H]1O[C@H](Cc2cc(-c3ccc(F)cc3)on2)CC[C@@H]1O)c1ccncc1 | inactive: 0.934% [at 57.5 µM] |
| CC(=O)N1CCN([C@H]2[C@@H]3OC[C@@H](O3)[C@@H](NCc3cnc4ccccc4c3)[C@@H]2O)CC1 | inactive: 0.926% [at 57.5 µM] |
| CNC(=O)[C@@H]1C[C@@H](n2cc(CNC(=O)Cc3ccccc3)nn2)CN1 | inactive: 48.5% |
| O=C(COc1ccccc1)N1CCOC[C@H](Oc2ccccc2)C1 | inactive: 0.0193% [at 57.5 µM] |
| CCc1cc(=O)n(CC(=O)Nc2ccc(C(C)C)cc2)c(N2CCOCC2)n1 | inactive: 2.79% |
| O=C(c1ccc(Oc2ccccc2)cc1)N1CCNc2cnc(Nc3cccnc3)nc2C1 | inactive: 3.69% |
| c1cc(-c2n[nH]c(CNC3CCC4(CCNCC4)CC3)n2)ccn1 | inactive: 33.1% |
| Cc1ccc2nc([C@H]3CCN(C4CCC4)C3)[nH]c2c1 | inactive: 3.27% [at 76.7 µM] |
| O=C(Nc1ccccc1)c1ccc(-c2cccc3c2CCNC3)o1 | inactive: 7.12% |
| O=C(NC(C(=O)N1CCCCC1)C1CCN(C(=O)CCc2ccccc2)CC1)c1cccs1 (configuration not stated) | inactive: 2.77% |
| c1cncc(CN2CC[C@H](c3nc4ccccc4[nH]3)C2)c1 | inactive: -2.04% [at 76.7 µM] |
| c1ccc(-c2[nH]nc3ncc(-c4cn[nH]c4)nc23)cc1 | inactive: 0.186% [at 76.7 µM] |
| CCN(CC)C(=O)[C@@H]1CCC[C@@H](NC(=O)c2cncnc2)CN(C)C(=O)C1 | inactive: 1.04% [at 57.5 µM] |
| O=C(NCCc1ccccn1)c1nc(-c2ccccc2)cc2[nH]ccc12 | inactive: 2.84% [at 57.5 µM] |

| Structure (SMILES) | activity change, negative = inhibition |
| --- | --- |
| NCCN1C(=O)CC[C@H]2CN(C(=O)C3(c4ccccc4)CC3)CC[C@H]21 | inactive: 13.1% |
| O=C(NCCc1cnc[nH]1)c1nc(-c2ccccc2)cc2[nH]ccc12 | inactive: 9.05% [at 57.5 µM] |
| Cc1noc2c(-c3cccnc3)cc(-c3cccs3)nc12 | inactive: 5.01% [at 57.5 µM] |
| c1csc(CN2Cc3[nH]cnc3C[C@H]2c2nc(-c3ccc4c(c3)OCO4)no2)c1 | inactive: 13.3% [at 57.5 µM] |
| O=C(C[C@@H]1CCNC[C@@H]1Cc1cc(CC2CCCCC2)on1)NCc1ccco1 | inactive: -4.51% [at 57.5 µM] |
| Cc1ccccc1-c1cnc2[nH]cc(CC(=O)NC3CC3)c2c1 | inactive: -0.864% [at 57.5 µM] |
| COc1ccc(S(=O)(=O)N2CC[C@H](NC(=O)c3ccncc3)C[C@H]2C(=O)N[C@@H](CC2CCCCC2)C(N)=O)cc1 | inactive: 1.02% |
| O=C(O)[C@H]1C[C@H](C(=O)NCc2ccccn2)CN(C(=O)CC2CCCC2)C1 | inactive: 0.78% |
| CCc1ncc(C(=O)N2CCN(c3ccc(Cl)c(Cl)c3)CC2)cn1 | inactive: 1.67% |
| Nc1ccc(-c2ccc(OCCn3ccnc3)cc2)cn1 | inactive: 9.17% |
| COc1ccccc1-c1ccc2ncc(Nc3cccc(O)c3)n2n1 | inactive: 17.8% [at 57.5 µM] |
| CC(C)NC(=O)N[C@H]1CCN2C(=O)c3cc(-c4ccccc4)ccc3NC(=O)[C@H]12 | inactive: -3.67% [at 57.5 µM] |
| O=C(Cc1cccc(F)c1)NCc1nnc2ccc(-c3ccc(Cl)cc3)nn12 | inactive: 0.305% |
| Oc1ccccc1CN1CCNc2cc(Nc3cccnc3)ncc2C1 | inactive: 9.15% [at 57.5 µM] |
| O=C(NC1CCN(c2cc(-c3cccs3)[nH]n2)C1)c1cccc(OC(F)(F)F)c1 (configuration not stated) | inactive: 1.45% |
| CCO[C@H]1CN(C(=O)CCCc2nc(-c3ccccc3OC)no2)C[C@@H]1O | inactive: 3.8% |
| Cc1cc(S(=O)(=O)NCC2CCOCC2)ccc1F | inactive: -4.53% |
| O=C(CCc1ccc2c(c1)OCO2)N[C@H](c1cccs1)C1CC(O)C1 (some centres not stated) | inactive: -0.11% |
| CC1=C[C@@H](CO)[C@H](C(C)C)C[C@H]1Cc1nnc(-c2ccc(N(C)C)cc2)o1 | inactive: 12.8% [at 57.5 µM] |
| Cc1cccc2c1nc1n2[C@@H](CNC2CCCCC2)COC1 | inactive: -2.31% [at 57.5 µM] |
| C[S+](=O)([O-])c1cccc(NC(=O)Cc2c[nH]c3ncc(-c4cccnc4)cc23)c1 | inactive: 13.5% [at 57.5 µM] |
| CCc1nc2c(c(-c3ccc(Cl)cc3)n1)CCN(Cc1ccc(C#N)cc1)CC2 | inactive: -0.038% |
| Cc1ncsc1C1N(C2CCN(Cc3cn(C)c4ccccc34)CC2)C(=O)C12CCCC2 (configuration not stated) | inactive: 1.18% |
| Cc1cccc(O[C@H]2COCCN(C(=O)c3ccc(C(F)(F)F)cc3)C2)n1 | inactive: -2.61% [at 57.5 µM] |
| Cc1cc(OCCN2CCOCC2)c(C)c2c1CC[C@@H]([C@H](C)C(=O)NC(C)(C)C)C2 | inactive: 1.61% [at 57.5 µM] |
